# The full ranking holds about 33,000 sequences; the median of “E-score (-0.5 to 0.5)” is about -0.035, and the highest 2% start at about 0.34. Some of the results follow.
# Biological target: T1, Mot3 (UniProt P54785)
# T1 sequence: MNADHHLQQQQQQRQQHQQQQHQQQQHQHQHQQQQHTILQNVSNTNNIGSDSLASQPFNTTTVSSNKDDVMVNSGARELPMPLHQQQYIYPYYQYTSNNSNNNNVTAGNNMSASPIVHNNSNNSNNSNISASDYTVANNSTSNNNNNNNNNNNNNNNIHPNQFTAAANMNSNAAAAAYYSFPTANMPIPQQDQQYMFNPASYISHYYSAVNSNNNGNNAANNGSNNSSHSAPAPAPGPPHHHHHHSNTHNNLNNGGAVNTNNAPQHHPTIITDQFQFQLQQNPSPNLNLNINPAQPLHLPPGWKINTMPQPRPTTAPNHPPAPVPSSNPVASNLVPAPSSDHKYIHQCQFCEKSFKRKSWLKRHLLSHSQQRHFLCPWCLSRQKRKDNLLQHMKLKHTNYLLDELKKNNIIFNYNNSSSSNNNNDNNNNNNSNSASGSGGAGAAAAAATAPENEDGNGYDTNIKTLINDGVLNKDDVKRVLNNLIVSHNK
# Experiment: PBM E-score (8-mer binding enrichment) (E-score (-0.5 to 0.5)); higher = stronger / more preferred TF binding; most listed sequences are background and not binding sites
# Conditions: protein concentration: 200 nM; construct: GST-full length
# How it was run: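 Detection of bound protein used fluorescent anti-GST, with scans normalised by masliner. The proteins were GST-tagged yeast transcription factors applied at about 100-200 nM to universal all-10-mer Agilent arrays made double-stranded by primer extension. Each ungapped eight-base word, pooled with its reverse complement, was scored with an E-score from the Universal PBM Analysis Suite.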
row,Sequence,PBM E-score
1,AATGAGCC,-0.238
2,ATCTTCCC,-0.167
3,CCAAGATC,-0.275
4,AACCGATG,0.0735
5,GCCCGACA,-0.00853
6,CGCGTCCG,0.0176
7,ACGATGAC,-0.0119
8,GGAGTGCC,0.0916
9,AGAGAGGG,-0.182
10,CATGCAGC,-0.16
11,AGAAGCTC,-0.183
12,CATAAGAG,-0.0387
13,AACGGTGG,-0.099
14,ATGCCTCG,0.0595
15,ACCGGGCA,-0.256
16,AAAGCTGC,-0.2
17,CGCTCCAA,-0.209
18,GATGATTA,-0.0362
19,ACGTTTCC,0.11
20,CGTCCGCA,-0.186
21,TCGAGGAA,0.0247
22,CCCCGAGA,-0.176
23,GCCTACAA,0.199
24,AACACTTG,0.0527
25,CGGAGTTA,-0.0135

row,Sequence,PBM E-score
1,GTTCTAAA,0.0659
2,ACTGCACG,-0.0625
3,CGCTCGTC,-0.217
4,TCTCCTAA,0.0995
5,AAGCCTCA,-0.19
6,AACAGCGC,0.0828
7,GGTTCCAA,-0.208
8,ACAACTAG,-0.0235
9,GGGCTAGA,-0.251
10,AATGCTAT,0.0181
11,AAACCGTC,-0.0525
12,TACTTCGA,-0.00982
13,ACGTAAAC,0.251
14,AGGCATGA,0.153
15,TCGAAAAA,0.181
16,ACTCCTCC,-0.234
17,GACCCCGA,-0.118
18,GGGTGGAC,-0.236
19,CGATTTGA,0.0574
20,AGCTGCAA,-0.317
21,ACCGACTA,-0.213
22,ACTTTATC,0.172
23,GGGCCTCA,-0.178
24,GGAGCTTA,-0.0983
25,GAACTCCC,-0.0785

row,Sequence,PBM E-score
1,CAAATGCC,-0.0299
2,CCGAGCGA,-0.246
3,GGGATAAC,0.016
4,AATAGGCT,0.161
5,AAGACCCG,-0.143
6,CCTGTTGC,0.186
7,GTCGGCAA,-0.0195
8,GGGTCTCA,-0.282
9,CTAATTGC,0.127
10,CAGCGCCC,-0.184
11,CCTCCACA,-0.0595
12,CAAGTTGC,0.144
13,ATGTCTAA,0.142
14,AGTGATAC,0.0126
15,GAACAGGA,0.16
16,AGTACCTC,-0.107
17,GTTTAACA,0.316
18,GTGCCTTA,0.49
19,AAGTCACA,0.0863
20,CAGACGAC,-0.12
21,ACGTTAGA,0.0408
22,CAAACGCC,-0.143
23,CCCAACAG,-0.174
24,GTCACGAC,0.0302
25,ATAACCAC,-0.0418

row,Sequence,PBM E-score
1,ATTGGAGC,0.00824
2,AAATCAGT,-0.0253
3,GGAATGAC,-0.119
4,GGTTCCCA,-0.17
5,CGCCGTTA,-0.107
6,GAACCAAC,-0.0375
7,ATCCGCCA,-0.251
8,GATATCGA,-0.096
9,ACTCTTAG,0.0367
10,GATCTCCA,-0.175
11,GACACCCA,-0.0443
12,GGGCCAGA,-0.172
13,AAGAATCT,-0.0574
14,ACGTTCAT,0.132
15,AGGTCGAT,-0.167
16,GGCTTCCC,-0.334
17,GATACGAC,-0.0987
18,CATCGAAC,-0.194
19,ACGGCAGA,-0.152
20,AAACTACA,0.273
21,GCCTGGGA,0.102
22,ACTGATCG,-0.149
23,ATAATGCG,0.149
24,GGCTCCCC,-0.124
25,CGGGATAC,-0.161

row,Sequence,PBM E-score
1,ATCATGTG,0.198
2,AACTTAGT,-0.042
3,AGTTCCTA,0.433
4,AGCACCCA,-0.0276
5,GAGGGGGA,-0.298
6,ATACGAAC,0.115
7,GCCATGGC,-0.261
8,ACAGAAGC,-0.143
9,CTCCCAGA,-0.0663
10,GAGAAGTA,-0.0782
11,ATTGCACA,0.0652
12,CGCACGAC,-0.0534
13,CGGGGAGC,-0.212
14,AGTGTGAT,0.0336
15,ACGCACAC,0.204
16,ATAAGCGA,0.0612
17,CGTCACAG,-0.0995
18,CCGACAAC,-0.0527
19,AATGAGAA,0.0624
20,CCTGTACC,0.151
21,CCCGAGGG,-0.101
22,GTGAAGTA,0.0411
23,TATAACAA,0.195
24,ATTTCGTC,0.0441
25,CCTGTCAC,0.0213

row,Sequence,PBM E-score
1,ACCCACCT,-0.292
2,AGTCGAAT,-0.205
3,AGGTGGGC,-0.0807
4,AACCGTTC,0.00589
5,GCACTTCC,-0.21
6,AAAGGCGG,0.0743
7,TAGGCAAA,0.48
8,AATGAGGC,0.158
9,GCAATCAC,-0.008
10,ATTCCCAC,-0.101
11,ACCGATTA,0.0858
12,AATAGGTC,0.0378
13,AATACCTG,0.123
14,ACTCGCTA,0.0321
15,AATAGCGA,0.184
16,GCCCGGAC,-0.312
17,AAACCACT,-0.0392
18,CTGATTGA,-0.0468
19,GAACAGGC,0.312
20,CCTCCGAA,-0.18
21,AAACCCTC,0.0338
22,TGTATAAA,0.257
23,ACAGAACC,-0.0861
24,ACCTGATC,-0.143
25,TATCAAGA,-0.00554

row,Sequence,PBM E-score
1,AACGCTTG,0.0105
2,CGAGAGCG,-0.0881
3,AACGATGA,-0.127
4,ACCCATAT,-0.118
5,GTTTACGA,0.206
6,ACTCGGAG,-0.214
7,CCGCTCCG,-0.227
8,CAGGCGCG,0.156
9,TACTATAA,0.0867
10,CAGCAACC,-0.184
11,GCCCGCAC,-0.186
12,ACGATATG,0.0654
13,ATGTACGC,0.222
14,ACATTTAA,0.252
15,CTCTTAAC,0.109
16,ACGAGAAC,0.0296
17,CTGACTCC,-0.211
18,GCACGGTA,-0.0184
19,GCTGATAC,-0.0605
20,CCCCAGGA,-0.166
21,CCGTCGAC,-0.171
22,AATGACCG,-0.198

# Source: the supplement of paper PMC3334620
